Measured values published in PubChem BioAssay AID686970 (National Center for Advancing Translational Sciences (NCATS), 2013).
The whole screen tested about 360,000 compounds, of which about 6,000 (1.7%) were called active. Inconclusive results, whose numbers are uncertain, are shown with a selection of clear calls. The call rests on the fitted dose curve; in most records, active means well fitted cell-killing curve with a large enough effect; inconclusive means small, poorly fitted or top-dose-only effect, or effect the other way; inactive means flat fitted curve, though single readings scatter. Potencies of inconclusive entries are left out as doubtful fits.

Experiment: qHTS for induction of synthetic lethality in tumor cells producing 2HG: qHTS for the HT-1080-NT fibrosarcoma cell line;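 further: NT is the 2HG producing partner of a matched IDH1 knockdown line; nearly all actives have a fitted effect of over 55% in size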;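 on activity, negative = less viability: 0% = DMSO-treated cells and -100% = media-only wells without cells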
Details: HT-1080-NT fibrosarcoma viability, CellTiter-Glo ATP luminescence, 48 h; activity, negative = less viability: at 46.1 µM (top of the series) unless noted
Outline: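 Read-out is CellTiter-Glo luminescence after 10 minutes at room temperature, following 48 hours' compound treatment of HT-1080-NT cells (750 cells/well, RPMI, 5% FBS, 37 degrees C).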
Potency means the concentration at half of the fitted maximal effect; tags describe the fitted curve by direction and shape.

SMILES	Potency	activity, negative = less viability
COc1ccccc1N=C1NC(=O)/C(=C/c2ccc(N(C)C)cc2)S1	active: 7.31 µM	–
COC(=O)c1c(C)[nH]c(C(=O)C(C)OC(=O)C2=NNC(=O)CC2)c1C (stereo not drawn)	–	inactive: -1.68%
Cc1nc(/N=C(\N)NC(=O)c2ccccc2)nc2ccccc12	inconclusive [cytotoxic, single point]	–
O=C(O)c1ccc(NC2=C/C(=N/S(=O)(=O)c3cccs3)c3ccccc3C2=O)cc1	inconclusive [cytotoxic, single point]	–
CCOc1ccc(N=NC2C(=O)N(C(N)=S)N=C2C)cc1 (stereo not drawn)	–	inactive: 15.7%
O=C(CSc1nc(-c2ccco2)cc(C(F)(F)F)n1)NCCCN1CCOCC1	–	inactive: 0.266%
Cc1ccc(S(=O)(=O)NCC(=O)N/N=C/c2ccc(Cl)cc2Cl)cc1	–	inactive: 15.6%
O=C(Nc1nc(-c2ccccn2)cs1)c1ccccc1-n1cnnn1	inconclusive [cytotoxic, full curve]	–
COc1n[nH]c(C(=O)NCc2ccccc2)c1[N+](=O)[O-]	–	inconclusive: 12.8%
COCC(=O)OCC(=O)Nc1ccccc1-c1ccccc1	–	inactive: -5.66%
COc1ccc2nc(N3CCCCC3)c(/C=C3\SC(=S)NC3=O)cc2c1	–	inconclusive: -21% [cytotoxic]
C/C(=N\NC(=O)c1cccc2ccccc12)c1ccccn1	inconclusive [cytotoxic, full curve, poor fit]	–
COC(=O)CCS(=O)(=O)c1nc(-c2ccccc2)cc(C(F)(F)F)n1	active: 7.08 µM	–
O=C(c1ccc(-c2nc3ccccc3s2)s1)N1CCOCC1	active: 8.2 µM	–
CS/C(=C\[N+](=O)[O-])Nc1ccc(OC(F)(F)F)cc1	inconclusive [cytotoxic, partial curve]	–
COc1ccc(C(=O)Nc2ccc(N3CCOCC3)cc2)cc1S(=O)(=O)N1CCOCC1	–	inactive: 0.985%
O=C(Cn1nc(CNc2ccc(Br)cc2)[n+]2c1CCCCC2)c1ccc([N+](=O)[O-])cc1	inconclusive [cytotoxic, single point]	–
COc1ccc(Cl)cc1-c1cc(C(=O)NCc2cccc(Cl)c2)[nH]n1	inconclusive [cytotoxic, single point]	–
C=Cc1ncc(OC)c2c1[nH]c1ccccc12	active: 16.4 µM	–
CCn1c(SCc2nc3ccccc3c(=O)[nH]2)nc2ccccc2c1=O	–	inconclusive: -31.4% [cytotoxic]
COc1cc(/C=N/NC(=O)c2sc(N)c(C#N)c2C)ccc1O	–	inactive: -1.87%
CC(=O)c1cccc(NS(=O)(=O)c2ccc3c(c2)N(C(C)=O)CCO3)c1	inconclusive [cytotoxic, single point]	–
CCn1c(/C=C/N(C(C)=O)c2ccccc2)[n+](CC)c2ccc(Cl)cc21	–	inactive: 9.6%
O=C(C[C@@H]1C/C=C\C[C@@H](NC(=O)OCC2c3ccccc3-c3ccccc32)C(=O)OC[C@@H](Cc2ccccc2)NC1=O)NCCO	–	inactive: -1.51%

SMILES	Potency	activity, negative = less viability
COc1ccc(S(=O)(=O)N(C(=O)C(C)C)c2ccc3oc(=O)sc3c2)cc1	inconclusive [cytotoxic, single point]	–
COc1cc(/C=N/N(c2ccccc2)c2ccccc2)ccc1O	active: 18.4 µM	–
COc1cc(C(=O)Oc2ccccc2OC(=O)c2cc(OC)c(OC)c(OC)c2)cc(OC)c1OC	–	inactive: -9.8%
Cc1onc(NC(=O)c2ccc([N+](=O)[O-])o2)c1Br	inconclusive [cytotoxic, partial curve]	–
CC(C)CNC(=O)c1[nH]c(C(F)(F)F)nc1-c1ccccc1	–	inactive: -3.5%
CC(C)c1ccc(NC(=O)NCc2cccnc2)cc1	–	inactive: 5.88%
COc1cccc(NC(=O)NCCCN2CCN(c3ccc(F)cc3)CC2)c1	inconclusive [cytotoxic, single point]	–
COc1ccc(C2=Nc3ccccc3NC(=O)C2N(C(=O)c2ccnc3ccccc23)c2ccccc2)cc1 (stereo not drawn)	inconclusive [cytotoxic, single point]	–
S=C(NCCc1ccccc1)Nc1ccc(Nc2ccccc2)cc1	inconclusive [cytotoxic, single point]	–
CC(=O)c1c(C)[nH]c(C(=O)COC(=O)CNS(=O)(=O)c2ccccc2)c1C	–	inactive: 5.72%
O=C(Nc1ccc(-c2nc3ccccc3s2)cc1)c1cc(-n2cnnc2)ccc1Cl	active: 10 µM	–
O=C(CN1C(=O)/C(=C/c2ccc(C(F)(F)F)cc2)Sc2ccccc21)NCCCN1CCOCC1	inconclusive [cytotoxic, single point]	–
CC(C)CC1C(=O)N(Cc2cn(Cc3ccco3)nn2)CCS(=O)(=O)N1Cc1ccc(-c2ccc(Cl)cc2)cc1 (stereo not drawn)	inconclusive [cytotoxic, single point]	–
NC(=O)c1ccsc1NC(=O)COC(=O)c1cc(=O)[nH]c2ccccc12	–	inactive: -9.88%
C=C(C)Cn1c2ccc(NC(=O)CCOCC)cc2c(=O)n1C	inconclusive [rising, single point]	–
Cc1cc(C)c(S(=O)(=O)N2CCOC23CCN(S(C)(=O)=O)CC3)c(C)c1	–	inactive: 6.49%
CC(C)c1ccc(NC(=O)C2CCC(CNC(=O)[C@@H]3Cc4ccccc4CN3)CC2)cc1 (stereo partly drawn)	inconclusive [cytotoxic, single point]	–
Cc1ccc(NC(=S)NNC(=O)c2cccc([N+](=O)[O-])c2)cc1Cl	inconclusive [cytotoxic, single point]	–
O=C(NC(=S)N1CCCC1)c1ccc(Cl)cc1	–	inactive: 15%
CCOc1ccc(-c2c(C(=O)N/N=C/c3ccoc3)nnn2-c2nonc2N)cc1	inconclusive [cytotoxic, single point]	–
CC(=O)c1ccc(N2CCN(C(=O)Nc3ccc(Cl)cc3)CC2)cc1	–	inactive: -21.5%
COc1ccc(CCN(C)C/C=C/c2ccccc2[N+](=O)[O-])cc1OC	–	inactive: -4.15%
O=C(COc1ccccc1)Nc1ccc(-c2nnc(-c3ccco3)o2)cc1	active: 9.2 µM	–
CC(O)(c1ccc(F)c(F)c1)c1nc(-c2cccc(F)c2)cs1 (stereo not drawn)	inconclusive [cytotoxic, single point]	–
